The list shows a part of the results. The energies were worked out here from pooled read counts, against the library average; single values are noisy.
Each sequence was assayed against T1, Pho4 (S. cerevisiae) (UniProt P07270) (assay: relative binding free energy (BET-seq); higher = weaker binding). Details: reference: library average.
T1 sequence: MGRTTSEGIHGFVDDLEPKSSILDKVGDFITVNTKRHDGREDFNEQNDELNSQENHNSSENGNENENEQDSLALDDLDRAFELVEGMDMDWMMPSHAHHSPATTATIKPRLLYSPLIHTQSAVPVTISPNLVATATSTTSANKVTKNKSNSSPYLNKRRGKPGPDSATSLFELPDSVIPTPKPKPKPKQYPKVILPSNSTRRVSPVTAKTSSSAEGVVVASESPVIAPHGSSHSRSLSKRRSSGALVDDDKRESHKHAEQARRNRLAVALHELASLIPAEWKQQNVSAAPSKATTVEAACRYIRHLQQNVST
In the case of GGGGTCACGTGTTGTT, the “relative binding free energy” value was 0.24 kcal/mol.
For AAGTTCACGTGTCTGG, the “relative binding free energy” value was 0.15 kcal/mol.
In the case of ATTGCCACGTGAGGAT, the “relative binding free energy” value was 0.21 kcal/mol.
For GTGTCCACGTGTGTAA, the “relative binding free energy” value was 0 kcal/mol.
TGGTACACGTGGGATT was tested, and the “relative binding free energy” value was 0.01 kcal/mol.
In the case of AGGCCCACGTGTGGGG, the “relative binding free energy” value was -0.26 kcal/mol.
For GAAGGCACGTGGTGCG, the “relative binding free energy” value was -0.17 kcal/mol.
With CATTTCACGTGGGAGG the “relative binding free energy” value was -0.03 kcal/mol.
GCGGACACGTGGTTGA was tested, and the “relative binding free energy” value was 0.22 kcal/mol.
With TTAGTCACGTGGATGC the “relative binding free energy” value was 0.24 kcal/mol.
With TGAGGCACGTGGGATT the “relative binding free energy” value was -0.1 kcal/mol.
GTTTACACGTGGTTGT was tested, and the “relative binding free energy” value was 0.17 kcal/mol.
GAAGACACGTGTTGTA was tested, and the “relative binding free energy” value was 0 kcal/mol.
For TCCTTCACGTGTTAGG, the “relative binding free energy” value was 0.27 kcal/mol.
In the case of ATGTACACGTGGGTCA, the “relative binding free energy” value was -0.11 kcal/mol.
With TAGGACACGTGAGGGT the “relative binding free energy” value was 0.22 kcal/mol.
AGGTGCACGTGGTCGG was tested, and the “relative binding free energy” value was -0.14 kcal/mol.
In the case of ATAGCCACGTGTGGGT, the “relative binding free energy” value was -0.1 kcal/mol.
With CAGGTCACGTGCGTGG the “relative binding free energy” value was -0.07 kcal/mol.
In the case of TTGGTCACGTGTTAAT, the “relative binding free energy” value was 0.19 kcal/mol.
AGAAACACGTGTTGTG was tested, and the “relative binding free energy” value was -0.04 kcal/mol.
For ATAGTCACGTGTAGGG, the “relative binding free energy” value was 0.09 kcal/mol.
For GTTGACACGTGGAGGC, the “relative binding free energy” value was 0.07 kcal/mol.
In the case of GCCGGCACGTGGTAGT, the “relative binding free energy” value was 0.01 kcal/mol.
TCTAGCACGTGTGTGG was tested, and the “relative binding free energy” value was -0.06 kcal/mol.
In the case of TATGACACGTGGTCTT, the “relative binding free energy” value was -0.24 kcal/mol.
In the case of TTCGACACGTGATTGT, the “relative binding free energy” value was 0.12 kcal/mol.
In the case of TAAAACACGTGTAGGT, the “relative binding free energy” value was 0.12 kcal/mol.
With TGTTTCACGTGGGGGG the “relative binding free energy” value was 0.12 kcal/mol.
In the case of GTAGGCACGTGGGGTC, the “relative binding free energy” value was -0.21 kcal/mol.
TCCTGCACGTGTGAGG was tested, and the “relative binding free energy” value was 0.09 kcal/mol.
With CGTGGCACGTGGGACG the “relative binding free energy” value was -0.26 kcal/mol.
In the case of GCCTGCACGTGTTGTG, the “relative binding free energy” value was 0.04 kcal/mol.
In the case of GGTTTCACGTGCGCCG, the “relative binding free energy” value was 0.24 kcal/mol.
In the case of TTCTGCACGTGATGTA, the “relative binding free energy” value was 0.2 kcal/mol.
With TCGCTCACGTGGAGGT the “relative binding free energy” value was 0.22 kcal/mol.
ACGGTCACGTGTGGAG was tested, and the “relative binding free energy” value was 0.22 kcal/mol.
For TAGTTCACGTGGAATA, the “relative binding free energy” value was 0.35 kcal/mol.
TGTTCCACGTGTAGGG was tested, and the “relative binding free energy” value was -0.08 kcal/mol.
In the case of TTGAGCACGTGGAAGC, the “relative binding free energy” value was 0.08 kcal/mol.
With TAGGACACGTGAGTTG the “relative binding free energy” value was 0.31 kcal/mol.
In the case of CGTCACACGTGGGTAG, the “relative binding free energy” value was 0 kcal/mol.
For ATTTTCACGTGAACGG, the “relative binding free energy” value was 0.43 kcal/mol.
For TGTTTCACGTGACGCG, the “relative binding free energy” value was 0.4 kcal/mol.
TATTGCACGTGTTTCG was tested, and the “relative binding free energy” value was -0.02 kcal/mol.
In the case of GGGTACACGTGCTTGG, the “relative binding free energy” value was 0.18 kcal/mol.
In the case of GTGTGCACGTGGCAGA, the “relative binding free energy” value was -0.13 kcal/mol.
In the case of AATTTCACGTGGGATC, the “relative binding free energy” value was 0.28 kcal/mol.
AGTTACACGTGGGCGT was tested, and the “relative binding free energy” value was -0.05 kcal/mol.
In the case of GTGTGCACGTGCGGAC, the “relative binding free energy” value was -0.04 kcal/mol.
For ATTGTCACGTGTACTG, the “relative binding free energy” value was 0.06 kcal/mol.
GGGGGCACGTGGTGCC was tested, and the “relative binding free energy” value was -0.16 kcal/mol.
For CAGATCACGTGTGGTT, the “relative binding free energy” value was 0.31 kcal/mol.
With ATGAACACGTGGGTAA the “relative binding free energy” value was -0.05 kcal/mol.
ATTTGCACGTGACGGA was tested, and the “relative binding free energy” value was 0.11 kcal/mol.
With GTACACACGTGTTAGT the “relative binding free energy” value was 0.02 kcal/mol.
In the case of GGTGACACGTGCGATG, the “relative binding free energy” value was 0.02 kcal/mol.
In the case of TGATTCACGTGGTCTG, the “relative binding free energy” value was 0.29 kcal/mol.
For TTGGCCACGTGGGCGG, the “relative binding free energy” value was -0.19 kcal/mol.
TATTTCACGTGTGGCA was tested, and the “relative binding free energy” value was 0.41 kcal/mol.
TGGGACACGTGGAGCT was tested, and the “relative binding free energy” value was 0.05 kcal/mol.
In the case of GGGTGCACGTGGTGCC, the “relative binding free energy” value was -0.01 kcal/mol.
With AGGGGCACGTGGGTAA the “relative binding free energy” value was -0.32 kcal/mol.
In the case of ATCTTCACGTGTGTAG, the “relative binding free energy” value was 0.17 kcal/mol.
GAGTTCACGTGGGTAG was tested, and the “relative binding free energy” value was 0.3 kcal/mol.
With AGGGGCACGTGTCTGA the “relative binding free energy” value was -0.1 kcal/mol.
In the case of GGAGTCACGTGTCAGG, the “relative binding free energy” value was 0.14 kcal/mol.
CGTGTCACGTGGATTT was tested, and the “relative binding free energy” value was 0.22 kcal/mol.
For GGCGCCACGTGATGTG, the “relative binding free energy” value was 0.12 kcal/mol.
With TGATACACGTGAGGTC the “relative binding free energy” value was 0.36 kcal/mol.
With TAGTACACGTGTGGGC the “relative binding free energy” value was 0.06 kcal/mol.
For TGTACCACGTGGGGGG, the “relative binding free energy” value was -0.14 kcal/mol.
TAGGCCACGTGGGTTG was tested, and the “relative binding free energy” value was -0.14 kcal/mol.
With GTTAGCACGTGTGTGA the “relative binding free energy” value was 0.05 kcal/mol.
AAACTCACGTGTGGTG was tested, and the “relative binding free energy” value was 0.17 kcal/mol.
With CTCTTCACGTGTGTGG the “relative binding free energy” value was 0.27 kcal/mol.
In the case of TAGTGCACGTGCCGTG, the “relative binding free energy” value was -0.01 kcal/mol.
AGATGCACGTGGGAAC was tested, and the “relative binding free energy” value was 0.03 kcal/mol.
TTGCGCACGTGGCGTA was tested, and the “relative binding free energy” value was -0.3 kcal/mol.
In the case of TCCATCACGTGGGTGG, the “relative binding free energy” value was 0.11 kcal/mol.
In the case of TTCGTCACGTGATGCG, the “relative binding free energy” value was 0.22 kcal/mol.
For CTGCGCACGTGAGGTG, the “relative binding free energy” value was 0.08 kcal/mol.
In the case of AGGGCCACGTGTTATG, the “relative binding free energy” value was -0.13 kcal/mol.
In the case of GGGGACACGTGCTGTA, the “relative binding free energy” value was -0.01 kcal/mol.
With TAACTCACGTGTTGTT the “relative binding free energy” value was 0.17 kcal/mol.
For GTCCGCACGTGAGGGG, the “relative binding free energy” value was 0.06 kcal/mol.
CGGATCACGTGATTTT was tested, and the “relative binding free energy” value was 0.35 kcal/mol.
In the case of CGTGTCACGTGTCGAG, the “relative binding free energy” value was 0.05 kcal/mol.
For GAGTTCACGTGGTTGC, the “relative binding free energy” value was 0.4 kcal/mol.
With TTATACACGTGAGGGA the “relative binding free energy” value was 0.11 kcal/mol.
CGTGGCACGTGTTTGG was tested, and the “relative binding free energy” value was -0.15 kcal/mol.
For TTTAGCACGTGAGCTT, the “relative binding free energy” value was 0.2 kcal/mol.
With TTACACACGTGTAAGT the “relative binding free energy” value was 0.19 kcal/mol.
ATTGACACGTGTTACT was tested, and the “relative binding free energy” value was -0.01 kcal/mol.
For GAGGTCACGTGGATTA, the “relative binding free energy” value was 0.23 kcal/mol.
With TATGACACGTGCTGTG the “relative binding free energy” value was 0.01 kcal/mol.
In the case of TCTGTCACGTGGTGGA, the “relative binding free energy” value was -0.01 kcal/mol.
With TGTAACACGTGTATGC the “relative binding free energy” value was 0.02 kcal/mol.
TATAACACGTGTTGAG was tested, and the “relative binding free energy” value was -0.06 kcal/mol.
For ATTTACACGTGTCGGT, the “relative binding free energy” value was 0.21 kcal/mol.
For AAGAACACGTGTGGGC, the “relative binding free energy” value was 0.15 kcal/mol.
In the case of GTTGACACGTGCTTGG, the “relative binding free energy” value was 0.1 kcal/mol.
GCTGGCACGTGCGGAT was tested, and the “relative binding free energy” value was -0.05 kcal/mol.
GGGGTCACGTGAGGGC was tested, and the “relative binding free energy” value was 0.34 kcal/mol.
In the case of TAAATCACGTGTTGGT, the “relative binding free energy” value was 0.07 kcal/mol.
In the case of TCGTGCACGTGGAAGA, the “relative binding free energy” value was 0.16 kcal/mol.
With AGTTACACGTGTTTTG the “relative binding free energy” value was 0.07 kcal/mol.
With TTCATCACGTGGTATG the “relative binding free energy” value was 0.08 kcal/mol.
In the case of CTTATCACGTGTGGAA, the “relative binding free energy” value was 0.25 kcal/mol.
For GCATTCACGTGGGTTG, the “relative binding free energy” value was 0.1 kcal/mol.
With AATGGCACGTGATGCG the “relative binding free energy” value was -0.01 kcal/mol.
AGGGTCACGTGGTGTT was tested, and the “relative binding free energy” value was 0.01 kcal/mol.
With AGAGGCACGTGCGTGA the “relative binding free energy” value was -0.06 kcal/mol.
For TTTTGCACGTGGCGGA, the “relative binding free energy” value was -0.09 kcal/mol.
For GGATTCACGTGATGGA, the “relative binding free energy” value was 0.47 kcal/mol.
